Laboratory results from US11912763 (dated 2024).

Legend:
Test in all cases: ELISA
human CLDN18.2 [1] = biological target: T1, human CLDN18.2 (human, UniProt P56856)
human CLDN18.2 [2] = biological target: T1, human CLDN18.2; remark: listed apart in the source
human CLDN18.2 [3] = biological target: T1, human CLDN18.2; remark: listed apart in the source
mouse CLDN18.2 = biological target: T2, mouse CLDN18.2 (mouse, UniProt P56857)
T2 chain: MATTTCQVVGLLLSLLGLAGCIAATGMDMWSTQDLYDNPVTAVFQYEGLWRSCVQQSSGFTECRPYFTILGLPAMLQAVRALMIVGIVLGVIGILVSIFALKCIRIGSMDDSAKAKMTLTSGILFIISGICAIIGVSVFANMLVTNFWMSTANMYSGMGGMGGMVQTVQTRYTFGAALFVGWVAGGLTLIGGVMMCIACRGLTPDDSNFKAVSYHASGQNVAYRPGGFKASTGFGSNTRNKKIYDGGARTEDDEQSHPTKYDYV

human CLDN18.1 = biological target: T3, human CLDN18.1 (human, UniProt P56856)
T3 chain: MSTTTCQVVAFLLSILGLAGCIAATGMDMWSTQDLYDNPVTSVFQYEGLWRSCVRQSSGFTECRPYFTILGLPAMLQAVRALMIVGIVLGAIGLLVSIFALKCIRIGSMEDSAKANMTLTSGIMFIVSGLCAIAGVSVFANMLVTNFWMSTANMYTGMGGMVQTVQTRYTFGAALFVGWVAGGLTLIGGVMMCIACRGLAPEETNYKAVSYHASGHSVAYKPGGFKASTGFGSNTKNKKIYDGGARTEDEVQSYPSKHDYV

human CLDN18.2 [4] = biological target: T1, human CLDN18.2; remark: listed apart in the source
human CLDN18.2 [5] = biological target: T1, human CLDN18.2; remark: listed apart in the source
human CLDN18.2 [6] = biological target: T1, human CLDN18.2; remark: listed apart in the source
human CLDN18.2 [7] = biological target: T1, human CLDN18.2; remark: listed apart in the source
human CLDN18.2 [8] = biological target: T1, human CLDN18.2; remark: listed apart in the source
human CLDN18.2 [9] = biological target: T1, human CLDN18.2; remark: listed apart in the source
human CLDN18.2 [10] = biological target: T1, human CLDN18.2; remark: listed apart in the source
human CLDN18.2 [11] = biological target: T1, human CLDN18.2; remark: listed apart in the source
human CLDN18.2 [12] = biological target: T1, human CLDN18.2; remark: listed apart in the source

B1: Ab14 (antibody)
chain 1: QVQLVQSGAEVKKPGSSVKVSCKASGYAFSNYLIEWVRQAPGQGLEWMGLINPGSGGTNYNEKFKGKVTITADKSTSTAYMELSSLRSEDTAVYYCARVYYGNSFAYWGQGTLVTVSS[human IgG1 constant region not shown]
chain 2: DIVMTQSPDSLAVSLGERATINCKSSQSLLNSGNNKNYLAWYQQKPGQPPKLLIYWASTRESGVPDRFSGSGSGTDFTLTISSLQAEDVAVYYCQNDYFYPFTFGQGTKLEIKRTVAAPSVFIFPPSDEQLKSGTASVVCLLNNFYPREAKVQWKVDNALQSGNSQESVTEQDSKDSTYSLSSTLTLSKADYEKHKVYACEVTHQGLSSPVTKSFNRGEC
B1 gave an EC50 (human CLDN18.2 [1]) of 0.145 nM, an EC50 (human CLDN18.2 [2]) of 0.191 nM and an EC50 (human CLDN18.2 [3]) of 0.35 nM. For the same binder, the EC50 (mouse CLDN18.2) was 0.399 nM and the binding result (human CLDN18.1) was “no binding”.

B2: Ab12 (antibody)
chain 1: QVQLVQSGAEVKKPGSSVKVSCKASGYAFSNYLIEWVRQAPGQGLEWMGLINPGSGGTNYNEKFKGKVTITADKSTSTAYMELSSLRSEDTAVYYCARVYYGNSFAYWGQGTLVTVSS[human IgG1 constant region not shown]
chain 2: DIVMTQSPDSLAVSLGERATISCKSSQSLLNSGNNKNYLAWYQQKPGQPPKLLIYWASTRESGVPDRFSGSGSGTDFTLTISSLQAEDVAVYYCQNDYFYPFTFGQGTKLEIKRTVAAPSVFIFPPSDEQLKSGTASVVCLLNNFYPREAKVQWKVDNALQSGNSQESVTEQDSKDSTYSLSSTLTLSKADYEKHKVYACEVTHQGLSSPVTKSFNRGEC
For B2, the EC50 (human CLDN18.2 [2]) was 0.19 nM and the binding result (human CLDN18.1) was “no binding”.

B3: LB401 CLDN18.2 arm (antibody)
chain 1: QVQLVQSGAEVKKPGSSVKVSCKASGYAFSNYLIEWVKQAPGQGLEWIGLINPGSGGTNYNEKFKGKATITADKSTSTAYMELSSLRSEDTAVYYCARVYYGNSFAYWGQGTLVTVSS[human IgG1 constant region not shown]GGGGSGGGGSGGGGSGIPPHVQKSVNNDMIVTDNNGAVKFPQLCKFCDVRFSTCDNQKSCMSNCSITSICEKPQEVCVAVWRKNDENITLETVCHDPKLPYHDFILEDAASPKCIMKEKKKPGETFFMCSCSSDECNDNIIFSEEYNTSNPD
chain 2: DIVMTQSPDSLAVSLGERATISCKSSQSLLNSGNQKNYLTWYQQKPGQPPKLLIYWASTRESGVPDRFSGSGSGTDFTLTISSLQAEDVAVYYCQNDYFYPFTFGQGTKLEIKRTVAAPSVFIFPPSDEQLKSGTASVVCLLNNFYPREAKVQWKVDNALQSGNSQESVTEQDSKDSTYSLSSTLTLSKADYEKHKVYACEVTHQGLSSPVTKSFNRGEC
Work on B3 yielded an EC50 (human CLDN18.2 [4]) of 0.424 nM, an EC50 (human CLDN18.2 [5]) of 0.11 nM and an EC50 (human CLDN18.2 [6]) of 0.162 nM. It also gave an EC50 (human CLDN18.2 [7]) of 0.127 nM.

B4: LB433 CLDN18.2 arm (antibody)
chain 1: QVQLVQSGAEVKKPGSSVKVSCKASGYAFSNYLIEWVKQAPGQGLEWIGLINPGSGGTNYNEKFKGKATITADKSTSTAYMELSSLRSEDTAVYYCARVYYGNSFAYWGQGTLVTVSS[human IgG1 constant region not shown]GGGGSGGGGSGGGGSSPGQGTQSENSCTHFPGNLPNMLRDLRDAFSRVKTFFQMKDQLDNLLLKESLLEDFKGYLGCQALSEMIQFYLEEVMPQAENQDPDIKAHVNSLGENLKTLRLRLRRCHRFLPCENKSKAVEQVKNAFNKLQEKGIYKAMSEFDIFINYIEAYMTMKIRN
chain 2: DIVMTQSPDSLAVSLGERATISCKSSQSLLNSGNQKNYLTWYQQKPGQPPKLLIYWASTRESGVPDRFSGSGSGTDFTLTISSLQAEDVAVYYCQNDYFYPFTFGQGTKLEIKRTVAAPSVFIFPPSDEQLKSGTASVVCLLNNFYPREAKVQWKVDNALQSGNSQESVTEQDSKDSTYSLSSTLTLSKADYEKHKVYACEVTHQGLSSPVTKSFNRGEC
B4 was tested, and the EC50 (human CLDN18.2 [8]) was 0.161 nM, the EC50 (human CLDN18.2 [9]) was 0.86 nM and the EC50 (human CLDN18.2 [10]) was 0.286 nM. For the same binder, the EC50 (human CLDN18.2 [11]) was 0.86 nM and the EC50 (human CLDN18.2 [12]) was 0.264 nM.

B5: LB4331 CLDN18.2 arm (antibody)
chain 1: QVQLVQSGAEVKKPGSSVKVSCKASGYAFSNYLIEWVKQAPGQGLEWIGLINPGSGGTNYNEKFKGKATITADKSTSTAYMELSSLRSEDTAVYYCARVYYGNSFAYWGQGTLVTVSSASTKGPSVFPLAPCSRSTSESTAALGCLVKDYFPEPVTVSWNSGALTSGVHTFPAVLQSSGLYSLSSVVTVPSSSLGTKTYTCNVDHKPSNTKVDKRV[human IgG4 Fc with S228P (EU numbers) not shown]AGGGGSGGGGSGGGGSSPGQGTQSENSCTHFPGNLPNMLRDLRDAFSRVKTFFQMKDQLDNLLLKESLLEDFKGYLGCQALSEMIQFYLEEVMPQAENQDPDIKAHVNSLGENLKTLRLRLRRCHRFLPCENKSKAVEQVKNAFNKLQEKGIYKAMSEFDIFINYIEAYMTMKIRN
chain 2: DIVMTQSPDSLAVSLGERATISCKSSQSLLNSGNQKNYLTWYQQKPGQPPKLLIYWASTRESGVPDRFSGSGSGTDFTLTISSLQAEDVAVYYCQNDYFYPFTFGQGTKLEIKRTVAAPSVFIFPPSDEQLKSGTASVVCLLNNFYPREAKVQWKVDNALQSGNSQESVTEQDSKDSTYSLSSTLTLSKADYEKHKVYACEVTHQGLSSPVTKSFNRGEC
B5 showed an EC50 (human CLDN18.2 [11]) of 0.75 nM.

B6: LB4333 CLDN18.2 arm (antibody)
chain 1: QVQLVQSGAEVKKPGSSVKVSCKASGYAFSNYLIEWVKQAPGQGLEWIGLINPGSGGTNYNEKFKGKATITADKSTSTAYMELSSLRSEDTAVYYCARVYYGNSFAYWGQGTLVTVSS[human IgG1 constant region with L234A (EU numbers) not shown]GGGGSGGGGSGGGGSSPGQGTQSENSCTHFPGNLPNMLRDLRDAFSRVKTFFQMKDQLDNLLLKESLLEDFKGYLGCQALSEMIQFYLEEVMPQAENQDPDIKAHVNSLGENLKTLRLRLRRCHRFLPCENKSKAVEQVKNAFNKLQEKGIYKAMSEFDIFINYIEAYMTMKIRN
chain 2: DIVMTQSPDSLAVSLGERATISCKSSQSLLNSGNQKNYLTWYQQKPGQPPKLLIYWASTRESGVPDRFSGSGSGTDFTLTISSLQAEDVAVYYCQNDYFYPFTFGQGTKLEIKRTVAAPSVFIFPPSDEQLKSGTASVVCLLNNFYPREAKVQWKVDNALQSGNSQESVTEQDSKDSTYSLSSTLTLSKADYEKHKVYACEVTHQGLSSPVTKSFNRGEC
In the case of B6, the EC50 (human CLDN18.2 [11]) is reported as 0.91 nM.

B7: LB4335 CLDN18.2 arm (antibody)
chain 1: QVQLVQSGAEVKKPGSSVKVSCKASGYAFSNYLIEWVKQAPGQGLEWIGLINPGSGGTNYNEKFKGKATITADKSTSTAYMELSSLRSEDTAVYYCARVYYGNSFAYWGQGTLVTVSSASTKGPSVFPLAPSSKSTSGGTAALGCLVKDYFPEPVTVSWNSGALTSGVHTFPAVLQSSGLYSLSSVVTVPSSSLGTQTYICNVNHKPSNTKVDKKV[human IgG1 Fc with changes not shown]AGGGGSGGGGSGGGGSSPGQGTQSENSCTHFPGNLPNMLRDLRDAFSRVKTFFQMKDQLDNLLLKESLLEDFKGYLGCQALSEMIQFYLEEVMPQAENQDPDIKAHVNSLGENLKTLRLRLRRCHRFLPCENKSKAVEQVKNAFNKLQEKGIYKAMSEFDIFINYIEAYMTMKIRN
chain 2: DIVMTQSPDSLAVSLGERATISCKSSQSLLNSGNQKNYLTWYQQKPGQPPKLLIYWASTRESGVPDRFSGSGSGTDFTLTISSLQAEDVAVYYCQNDYFYPFTFGQGTKLEIKRTVAAPSVFIFPPSDEQLKSGTASVVCLLNNFYPREAKVQWKVDNALQSGNSQESVTEQDSKDSTYSLSSTLTLSKADYEKHKVYACEVTHQGLSSPVTKSFNRGEC
In the case of B7, the EC50 (human CLDN18.2 [11]) is reported as 0.88 nM.

B8: Ab13 (antibody)
chain 1: QVQLVQSGAEVKKPGSSVKVSCKASGYAFSNYLIEWVRQAPGQGLEWMGLINPGSGGTNYNEKFKGRVTITADESTSTAYMELSSLRSEDTAVYYCARVYYGNSFAYWGQGTLVTVSS[human IgG1 constant region not shown]
chain 2: DIVMTQSPDSLAVSLGERATINCKSSQSLLNSGNNKNYLAWYQQKPGQPPKLLIYWASTRESGVPDRFSGSGSGTDFTLTISSLQAEDVAVYYCQNDYFYPFTFGQGTKLEIKRTVAAPSVFIFPPSDEQLKSGTASVVCLLNNFYPREAKVQWKVDNALQSGNSQESVTEQDSKDSTYSLSSTLTLSKADYEKHKVYACEVTHQGLSSPVTKSFNRGEC
B8 gave an EC50 (mouse CLDN18.2) of 0.422 nM.

Like-named read-outs stand apart in the source and are kept apart here.
